Data as given in ChEMBL document CHEMBL5308541, “MAIP: An Open-Source Tool to Enrich High-Throughput Screening Output and Identify Novel, Druglike Molecules with Antimalarial Activity” (ACS Med Chem Lett, 2023).
In all, about 150,000 compounds went through this assay and about 540 (0.36%) showed an effect of 50% or more. The list shows a part of the results.

The compounds below were run on Plasmodium falciparum (assay: Primary screen in NF54 nanoGlo assay, in single point, at 2uM, 72h; a lower Z score goes with more inhibition). Details: timepoint 72 hour.
Assay type: functional, Erythrocyte
Cc1ccc(-c2cc(C(=O)N3CC4CCC3CN(C3CCOCC3)C4)[nH]n2)cc1 (centres undefined) was tested, and the “% Inhibition” value was -11% and the Z score was 2.46.
For COc1ccc(C2C(C(=O)N3CCC(C)CC3)OCC(=O)N2C2CC2)cc1 (centres undefined), the “% Inhibition” value was -14% and the Z score was 2.94.
In the case of CN1CCO[C@@H](CN(Cc2ccc3c[nH]nc3c2)CC2CC2)C1, the “% Inhibition” value is reported as -5% and the Z score is reported as 0.73.
With CCNc1cc(CNc2ncnc3scc(C)c23)ccn1 the “% Inhibition” value was -2% and the Z score was 0.33.
CCN(Cc1noc(C)n1)C(=O)[C@H]1CC(=O)N(CC(C)C)C1 was tested, and the “% Inhibition” value was -7% and the Z score was 1.26.
In the case of N#Cc1ccc(CCCN[C@H]2CCc3c(O)cccc32)cc1, the “% Inhibition” value is reported as -10% and the Z score is reported as 1.58.
With FC(F)(F)c1cn2c(n1)CCC(CNc1nccc(NC3CCCOC3)n1)C2 (centres undefined) the “% Inhibition” value was 9% and the Z score was -1.59.
In the case of CC(C)c1cc(NCCN2CCCCC2)ncn1, the “% Inhibition” value is reported as 2% and the Z score is reported as -0.34.
With COC(=O)C1CCC(Nc2cccc(CN3CCN(C)CC3)c2)CC1 (centres undefined) the “% Inhibition” value was -8% and the Z score was 1.26.
With CNC(=O)c1ccnc(N[C@H]2CCCN(CC3CCCCC3)C2)c1 the “% Inhibition” value was 2% and the Z score was -0.35.
For FC(F)(F)c1nc(NCc2cc3ccccc3[nH]2)c2ccccc2n1, the “% Inhibition” value was -19% and the Z score was 3.26.
For Cc1nc2ccccc2c(O)c1CC[C@H](C)NC1CCNCC1, the “% Inhibition” value was -3% and the Z score was 0.51.
With Cc1cc(NC(=O)c2cnn(CCN(C)C)c2)nn1CCC#N the “% Inhibition” value was -1% and the Z score was 0.15.
With Clc1cccc(CN2CCCN(c3ncccc3-c3nc(C4CC4)no3)CC2)c1 the “% Inhibition” value was 4% and the Z score was -0.8.
In the case of CNC(=O)c1cc(Oc2cccc(NCc3noc(-c4scnc4C)n3)c2)ccn1, the “% Inhibition” value is reported as 2% and the Z score is reported as -0.29.
CC1CC(NC2CC3CCC(C2)N3C(=O)OC(C)(C)C)CCN1C (centres undefined) was tested, and the “% Inhibition” value was -10% and the Z score was 1.73.
COCCN1CCC(NCc2ccc(-c3scnc3C)cc2)CC1 was tested, and the “% Inhibition” value was 3% and the Z score was -0.55.
In the case of O=C(N[C@H]1CC[C@H](O)CC1)c1cccc(-c2ccnc3ccccc23)c1, the “% Inhibition” value is reported as -2% and the Z score is reported as 0.24.
With OC1CC(c2ccc(F)c(F)c2)N(c2cc(NCC3CC3)ncn2)C1 (centres undefined) the “% Inhibition” value was -2% and the Z score was 0.39.
For Fc1cccc(N[C@H]2CCCN(Cc3cnc(N4CCOCC4)s3)C2)c1, the “% Inhibition” value was -11% and the Z score was 1.9.
In the case of CC(C)C[C@H](NC(=O)c1cc2ccc(Br)cc2[nH]1)C(=O)Nc1cc[nH]n1, the “% Inhibition” value is reported as -1% and the Z score is reported as 0.2.
N#C[C@H](c1cccs1)N1CCN(C(=O)CN2CCC(N3CCCCC3)CC2)CC1 was tested, and the “% Inhibition” value was -11% and the Z score was 2.41.
C=C(C)COc1cc(CNc2ccc3[nH]nnc3c2)ccc1OC was tested, and the “% Inhibition” value was 5% and the Z score was -0.86.
In the case of Oc1cccc(C2CCN(CCN3CC4CCC3C4)CC2)c1 (centres undefined), the “% Inhibition” value is reported as -1% and the Z score is reported as 0.22.
For CNc1nc(N[C@H]2CCCN(c3nc4ccccc4s3)C2)nc2c1CCC2, the “% Inhibition” value was -11% and the Z score was 1.75.
With FC(F)(F)c1nc(NC2CCN(C3CCCC3)CC2)c2nc[nH]c2n1 the “% Inhibition” value was -10% and the Z score was 1.72.
For Cc1nn(C)c2c(N3CCC(C(=O)NCCCN4CCC(N5CCCCC5)CC4)CC3)nccc12, the “% Inhibition” value was -1% and the Z score was 0.11.
CCN1CCC[C@H](Nc2cccc(-n3ccnc3)n2)C1 was tested, and the “% Inhibition” value was 46% and the Z score was -6.91.
With Fc1ccc2[nH]c(C3CCN(Cc4cc(-c5ccncc5)no4)CC3)nc2c1 the “% Inhibition” value was -1% and the Z score was 0.3.
In the case of Cc1nc(N[C@H]2CCCN(Cc3ccccc3F)C2)c2cccnc2n1, the “% Inhibition” value is reported as 1% and the Z score is reported as -0.14.
N#Cc1ccc2nc(N[C@H]3CCN(C(=O)C4CCCC4)C3)ccc2c1 was tested, and the “% Inhibition” value was -6% and the Z score was 1.36.
With COc1ccc(-c2n[nH]cc2-c2c(-c3ccccc3)ncn2CCCO)cc1 the “% Inhibition” value was -14% and the Z score was 2.94.
In the case of CNc1cc(N2CCC[C@H](CNCCn3cccn3)C2)ncn1, the “% Inhibition” value is reported as -3% and the Z score is reported as 0.69.
CN1CCN(CCOc2ccccc2-c2nccn2-c2ccc3c(c2)COC3)CC1 was tested, and the “% Inhibition” value was 0% and the Z score was -0.09.
For CCc1cc(-c2cc(-c3ccc(N4CCOCC4)cc3)nc(N)c2C#N)[nH]n1, the “% Inhibition” value was 7% and the Z score was -1.18.
With O=C(C1CNCC(C(=O)N2CCN(c3ccncc3)CC2)C1)N1CCOCC1 (centres undefined) the “% Inhibition” value was -15% and the Z score was 3.14.
In the case of O=C(C[C@@H](C(F)F)N1CCOCC1)NCc1ccnc2ccccc12, the “% Inhibition” value is reported as 8% and the Z score is reported as -1.66.
For Fc1cccc(N2CCCC2)c1CNc1nccc(N[C@H]2CCCOC2)n1, the “% Inhibition” value was -3% and the Z score was 0.56.
In the case of CN1CCC(N2CCC[C@H]2C(=O)NCc2ccccc2-n2ccnc2)CC1, the “% Inhibition” value is reported as 6% and the Z score is reported as -1.08.
With COC1CCN(c2ccc(NC(=O)c3cccc(-c4cnc5[nH]c(=O)n(C)c5c4)c3)cc2C(F)(F)F)CC1 the “% Inhibition” value was -5% and the Z score was 1.09.
O=C([C@H]1CCCN(C2CCN(c3ccnc4ccccc34)CC2)C1)N1CCCC1 was tested, and the “% Inhibition” value was -6% and the Z score was 1.
With CN1CCC2(CCN(C(=O)c3ccc(-c4ccc5nc[nH]c5c4)cc3)CC2)C1 the “% Inhibition” value was -6% and the Z score was 1.22.
FC(F)(F)c1ccc(N2CCC(NCc3csc(-c4cnccn4)n3)CC2)nc1 was tested, and the “% Inhibition” value was -8% and the Z score was 1.42.
CN1CCC[C@@H]1CCNC(=O)c1ccc(-c2cc3ccccc3s2)nc1N1CCOCC1 was tested, and the “% Inhibition” value was -5% and the Z score was 0.9.
With CC(C)Nc1ncc(-c2cc(-c3ccc(F)c(F)c3)nc(N)c2C#N)cn1 the “% Inhibition” value was -4% and the Z score was 0.68.
CCN1C[C@@H](n2cnc(-c3ccccc3)c2-c2ccc3cccc(O)c3n2)CC1=O was tested, and the “% Inhibition” value was -3% and the Z score was 0.58.
With Cc1cc2nc(-c3ccc(CNC(=O)c4cccc(N5CCOC5=O)c4)cc3)[nH]c2cc1C the “% Inhibition” value was -7% and the Z score was 1.18.
COc1cc(-c2nc3sc4ccccc4n3c2NCCCOC(C)C)ccc1O was tested, and the “% Inhibition” value was -1% and the Z score was 0.14.
For FC(F)(F)c1cc(N2CCC(Oc3cnccn3)CC2)ccn1, the “% Inhibition” value was 2% and the Z score was -0.35.
With O[C@H]1CCN(c2ccnc(N3CCN(Cc4cccc5[nH]ccc45)CC3)n2)C1 the “% Inhibition” value was 7% and the Z score was -1.14.
With Cc1ccc2c(c1)N(C[C@H](O)COc1cccc3[nH]ccc13)CCCO2 the “% Inhibition” value was 1% and the Z score was -0.18.
In the case of CC(C)(C)C(=O)Cn1cc(C(=O)N2CCCc3cc(F)ccc32)nn1, the “% Inhibition” value is reported as -7% and the Z score is reported as 1.07.
